Laboratory results reported in publication PMC12136788.
Some of the results follow.

T1: UNK ZnF1-3 (human, UniProt Q9C0B0 31-174)
T1 sequence: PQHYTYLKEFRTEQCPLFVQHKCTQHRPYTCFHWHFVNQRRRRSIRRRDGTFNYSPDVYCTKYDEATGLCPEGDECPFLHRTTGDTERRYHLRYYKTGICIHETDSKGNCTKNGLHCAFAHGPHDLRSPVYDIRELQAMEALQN

B1: chr11:86503612:86503613:+_ENSMUSG00000072582_ENSMUST00000108022|mus_mus|motif|central (ssRNA)
RNA: GGGAGUUCUACAGUCCGACGAUCUUACUGACAGGCUCCAUAGUCUUCGGACAGAAUCUCCAUCAAGCAAAAGCUUAUCGGGUAAAGUUUUAGGUGGCCAGUAACUUCAUCAAUUAGUUCUACUGGUCCUGGCCCAAUUCCCAGCAACAGAGGAUUGAGCAUCA
B2: chr13:31722580:31722581:-_ENSG00000120694_ENST00000320027|hu_hu|FALSE|FALSE (ssRNA)
RNA: GGGAGUUCUACAGUCCGACGAUCUGAAUCAUGGUUCCAGAUCAGAGAUAUUGGAAAAGGAACUGCAUCUGUGACGGAAAAUUCUCUAACUUUAAAUGCCGGGGAAAGUAUUGCACACUGUAAUGCACAUCCUCUGGCUACUGCCAACAGAGGAUUGAGCAUCA
B3: chr1:241675328:241675329:-_ENSG00000091483_ENST00000366560|hu_mus|motif|central (ssRNA)
RNA: GGGAGUUCUACAGUCCGACGAUCGCUUUUGUUAACAUGAUCAUUGGGGUGCACAGGCUUCUUGCUGCCAAGUUCACCUCCGGACAUUUCAAUUGCUCUGUUGCUAAUGACUUCAUUUACAUUCAUGUUUGUCUGGGUUCCUGACAACAGAGGAUUGAGCAUCA
B4: chr3:158399885:158399886:+_ENSG00000168827_ENST00000264263|hu_hu|FALSE|FALSE (ssRNA)
RNA: GGGAGUUCUACAGUCCGACGAUCUUCAUCUGAAAAUUCCAAUUUAGUGUAGUCCUCUGGGUCCAGAGGCUCCAGGACACCUAUUACUUUUCCAUACUGGCCUGCACCACCUGAUUGUUUUUUAUGUGUAAAGUCAAACGGGACCAACAGAGGAUUGAGCAUCA
B5: chr17:3197573:3197574:+_ENSMUSG00000046201_ENSMUST00000076734|mus_hu|FALSE|FALSE (ssRNA)
RNA: GGGAGUUCUACAGUCCGACGAUCCCUCACAAGAUUCUCUCUUAUAUCUACAGGAGGUCUUCCAAAAUGAUCCCUACCAUCUAGUGGAGGCCGUCCAGGACCUUCUCUUGGAUCUAUAGGCCGCCCAACCACAUCUCUAACAUCCAACAGAGGAUUGAGCAUCA
B6: chr1:55207850:55207851:+_ENSMUSG00000025979_ENSMUST00000162364|mus_hu|FALSE|FALSE (ssRNA)
RNA: GGGAGUUCUACAGUCCGACGAUCCCGAUGAUGAAAAUAAGCAUGUGAAAAUAUUCUGUAAAUCCUACGGCAUACUGAUCCUAGUUUCGCUACAGAUGAUUCCUUUAUGCUAACCCUGCUGGGAAAAUAUUUAUUGCUAUUCAGCAACAGAGGAUUGAGCAUCA

The binders below were run against T1, UNK ZnF1-3 (assay: nsRBNS (natural sequence RNA bind-n-seq); RBNS binding buffer (assumed for nsRBNS): 25 mM Tris pH 7.5, 150 mM KCl, 3 mM MgCl2, 0.01% Triton X-100, 500 ug/ml BSA, 20 U/ml SUPERase-In, 4 C; UNK is unkempt and MSI1 is Musashi-1; names of the RNAs are library labels; protein concentration not given here; high values mean tight binding).
B1 showed a binding signal of 1.8 enrichment R. Binder B2 has a binding signal of 1.23 enrichment R. Binder B3 has a binding signal of 0.283 enrichment R. B4 was tested, and the binding signal was 0.928 enrichment R. With B5 the binding signal was 0.871 enrichment R. B6 showed a binding signal of 1.13 enrichment R.
